Measured values as given in PubChem BioAssay AID1508624 (National Center for Advancing Translational Sciences (NCATS), 2021).
Screen size: about 48,000 compounds; about 120 (0.25%) were called active. About 4% were inconclusive and are not listed. Calls follow the shape of the dose curve; as a rule, active = well fitted activation curve with a large enough effect; inconclusive = small, poorly fitted or top-dose-only effect, or another doubt; inactive = no such curve, though single readings can be large or run the other way. Some of the results follow.

experiment: Primary qHTS for Identification of Small Molecule Activators of Huntingtin-Antisense Promoter Activity; conditions: HEK293 HTT-AS promoter firefly luciferase reporter, 24 h; series mostly up to 57.5 µM; activity change, positive = activation: at the top concentration; also: nearly all actives have a fitted effect of over 55% in size
Method in brief: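 HEK293 luciferase promoter-reporter cells (2,500/well) plated 24 h, then compounds added at up to 57.5 uM final for 24 h at 37 °C. Firefly luminescence by Dual-Glo, normalized to vehicle (0%) and zero RLU (-100%).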

Activity change, positive = activation, inactive:
O=C(CS(=O)(=O)c1cccc2nsnc12)Nc1ccccc1 -4.9%, COc1ccccc1CNC(=O)CN1C(=O)COc2ccc(S(=O)(=O)Nc3ccccc3)cc21 -25.1%, CC(C)(C)c1ccc(C(=O)NCCc2csc3nc(-c4ccccc4F)nn23)cc1 -6.96%, CSCCC(NS(=O)(=O)c1ccc2c(c1)oc(=O)n2C)C(=O)N1CCN(c2cc(C)ccc2C)CC1 (stereo unspecified) -29.9%, COc1ccc(C2CC(=O)NC(NC(=O)c3ccc(Br)cc3)=N2)c(OC)c1OC (stereo unspecified) 2.95%, COc1ccc(C2(Nc3cccc(C(=O)O)c3C)C(=O)c3ccccc3C2=O)cc1 5.44% [at 11.5 µM, percent change from vehicle, -100% = no light], O=C(/C=C\c1ccc2c(c1)OCO2)NC1CC(=O)N(c2ccc(Cl)cc2)C1 (stereo unspecified) -19.9%, COc1ccc(-c2csc3nc(-c4ccccc4C)oc(=O)c23)cc1OC -19.2%, Cc1ccc(NC(=O)C2CCN(S(=O)(=O)c3c(C)noc3C)CC2)c(C)c1 -7.91%, CC(=O)N1CCOc2cc(S(=O)(=O)NCc3ccc(C)cc3)c(Cl)cc21 -16.6%, CCOc1ccccc1NC(=O)c1cc(=O)c2ccc(C)cc2o1 -5.99%, COc1ccc(NC(=O)CSc2oc(-c3cccs3)nc2S(=O)(=O)c2ccc(C)cc2)c(OC)c1 1.97%, CCSc1nc(-c2ccccc2OC)nc2c1Cc1c(CO)cnc(C)c1O2 -29.7%, CCOC(=O)c1c(C)oc2ncnc(N3CCN(c4ccccc4F)CC3)c12 -31.7%, O=C(Cc1cccs1)NC1CC(=O)N(c2cccc(F)c2)C1 (stereo unspecified) -5.43%, Cn1c(=O)c2c(-c3ccc(Cl)cc3)n(Cc3ccccc3)cc2n(C)c1=O -19.5%, O=C(O)Cn1nnc(-c2ccc(OCc3cccc(C(F)(F)F)c3)cc2)n1 13.8%, COc1cccc(NC(=O)C2CCC(CNS(=O)(=O)c3ccc4c(c3)CC(C)N4C(C)=O)CC2)c1 (stereo unspecified) -28.4%, CCOC(=O)c1cc(S(=O)(=O)Nc2ccc(C)cc2Cl)[nH]n1 -9.91%, O=C(CSc1nccn1Cc1ccco1)Nc1ccc(F)cc1 33.6%, COc1ccc(CNC(=O)CSc2nc3ccccc3nc2Cc2ccccc2)cc1 -28.4%, CCOC(=O)c1[nH]c(C)c(CCC(=O)NCc2ccc(N(C)C)cc2)c1C -7.21%, COc1ccc(Cn2c(CCC(=O)NCc3cccc(Cl)c3)nc3cccnc32)cc1 -9.81%, COc1cccc(/C=C/c2nc(C#N)c(NCCN(C)C)o2)c1 -9.35%, COc1ccc(S(=O)(=O)NCCc2cc3ccc(C)c(C)c3[nH]c2=O)cc1 -36.2%, COc1ccc(OC)c(NC(=O)Cn2cnc3ccc(S(=O)(=O)N4CCC(C)CC4)cc3c2=O)c1 -30.7%
